Measurements reported in paper PMC4336329 (PLoS ONE, 2015).
In all, about 310,000 compounds went through this assay and about 14,000 (4.5%) showed an effect of 50% or more. The effect is printed as a negative number. Some of the results follow.

What follows are compounds tested against human ether-à-go-go-related gene (hERG) potassium channel (human, UniProt Q12809) (assay: primary screen, population patch clamp on CHO cells stably expressing hERG).
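Also: peak tail current of the secondary pulse compared with the same well before compound.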

Sequence of human ether-à-go-go-related gene (hERG) potassium channel (Q12809 whole entry, looked up): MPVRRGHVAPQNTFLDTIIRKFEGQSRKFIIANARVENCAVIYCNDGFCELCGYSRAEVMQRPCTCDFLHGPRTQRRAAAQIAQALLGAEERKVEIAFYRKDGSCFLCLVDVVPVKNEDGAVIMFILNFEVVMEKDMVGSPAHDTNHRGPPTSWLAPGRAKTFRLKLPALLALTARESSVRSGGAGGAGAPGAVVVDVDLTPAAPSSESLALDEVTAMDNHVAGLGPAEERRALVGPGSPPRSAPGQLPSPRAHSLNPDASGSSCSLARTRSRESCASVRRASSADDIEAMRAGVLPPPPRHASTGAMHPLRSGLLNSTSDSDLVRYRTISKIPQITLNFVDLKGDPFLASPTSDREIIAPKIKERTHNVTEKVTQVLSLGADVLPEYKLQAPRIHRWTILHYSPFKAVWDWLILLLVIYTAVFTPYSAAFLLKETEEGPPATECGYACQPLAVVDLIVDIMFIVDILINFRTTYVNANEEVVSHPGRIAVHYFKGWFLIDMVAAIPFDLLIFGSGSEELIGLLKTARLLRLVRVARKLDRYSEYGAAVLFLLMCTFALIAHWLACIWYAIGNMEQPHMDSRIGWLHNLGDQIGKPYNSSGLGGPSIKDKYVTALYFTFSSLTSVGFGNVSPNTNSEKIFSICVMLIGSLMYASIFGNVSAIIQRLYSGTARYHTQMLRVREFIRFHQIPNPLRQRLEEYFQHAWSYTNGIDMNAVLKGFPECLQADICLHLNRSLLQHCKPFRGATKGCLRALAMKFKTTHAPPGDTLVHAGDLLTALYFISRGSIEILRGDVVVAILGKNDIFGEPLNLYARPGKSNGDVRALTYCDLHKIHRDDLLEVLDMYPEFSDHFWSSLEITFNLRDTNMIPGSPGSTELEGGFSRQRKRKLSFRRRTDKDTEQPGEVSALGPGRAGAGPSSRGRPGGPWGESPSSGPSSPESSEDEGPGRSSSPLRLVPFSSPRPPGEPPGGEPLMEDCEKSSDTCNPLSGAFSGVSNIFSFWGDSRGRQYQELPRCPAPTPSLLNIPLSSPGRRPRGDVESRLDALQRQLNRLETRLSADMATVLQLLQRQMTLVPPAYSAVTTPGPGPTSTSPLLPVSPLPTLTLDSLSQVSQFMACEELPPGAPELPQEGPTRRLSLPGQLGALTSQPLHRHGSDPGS

| SMILES | hERG current change (%, negative = inhibition) at 10uM [%] |
| --- | --- |
| COc1ccc2[nH]c3c(c2c1)CCN1C(=O)N([C@@H](C)C(=O)NC2CCCC2)C(=O)[C@]31C | -16.4 |
| COc1ccc2cc3cc(C(=O)N4CCCCCC4)oc3nc2c1 | 5.99 |
| COC(=O)c1c(C)oc2ccc(NS(=O)(=O)c3cccs3)cc12 | -2.42 |
| O=C(Nc1ccc2nc(-c3ccco3)c(-c3ccco3)nc2c1)N1CCCCCC1 | 11.8 |
| O=S(=O)(CCc1nc2ccccc2[nH]1)c1ccc(Cl)cc1 | -6.64 |
| COc1ccc(CNC(=O)/C=C/c2cc([N+](=O)[O-])ccc2OC(F)F)cc1 | 15.3 |
| CS(=O)(=O)Nc1ccc(-c2cn3c(n2)SCC3)cc1 | 3.65 |
| CCCOc1ccc(C(C)=O)cc1CC(C(N)=O)C(N)=O | 14.9 |
| O=C(O)c1ccc(Cl)c2c1C1C=CCC1C(c1ccccn1)N2 (centres unmarked) | 7.76 |
| COc1ccccc1CNC(=O)c1cccc(NC(=O)c2ccccc2)c1 | -10.9 |
| COc1ccc(-c2nnc(SCC(=O)c3cc(C)n(Cc4cccs4)c3C)o2)cc1 | 5.36 |
| CCOc1ccc(NS(=O)(=O)c2ccc(OCC(=O)N3CCCC3)cc2)cc1 | -4.33 |
| Cc1ccc(NC(=O)N2CCN(C)CC2)cc1NC(=O)N1CCN(C)CC1 | 3.03 |
| Cc1cc(C(C)(C)C)cc(C)c1COC(=O)CN1C(=O)NC2(CCCC2)C1=O | 12.2 |
| Cc1ccccc1S(=O)(=O)NNC(=O)C(=O)NNc1ccccn1 | 9.71 |
| Cc1cccc(NC(=O)CC2C(=O)NC3CCCCC3N2C(=O)c2ccccc2Cl)c1 (centres unmarked) | 8.54 |
| COC(=O)c1nnn(-c2nc(N(C)C)nc(N(C)C)n2)c1C | -7.53 |
| O=C1CSC(c2cccc([N+](=O)[O-])c2)N1C1CC2CCC1C2 (centres unmarked) | -15.7 |
| CCOc1ccccc1NC(=O)COC(=O)CCOc1cc(C)ccc1C | 14.8 |
| NC(=S)NC1CC2CC1C1C=CCC21 (centres unmarked) | 6.66 |
| CCN1CCN(c2cc(C)c3cc(NC(=O)c4cc(OC)cc(OC)c4)ccc3n2)CC1 | -35.6 |
| Cc1cccc(OCC2=N/C(=C\N(C)C)C(=O)O2)c1 | 4.15 |

| SMILES | hERG current change (%, negative = inhibition) at 10uM [%] |
| --- | --- |
| Cc1cccc(NC(=O)CCc2ccc(S(=O)(=O)NC3CCCCC3)cc2)c1 | 14.4 |
| CCOCCCNC(=O)CC1Oc2ccc(C)cc2NC1=O (centres unmarked) | -2.59 |
| CCc1ccc(CN2CCC(C(=O)Nc3ccc(-n4nc(C)cc4C)cc3)CC2)o1 | -46.1 |
| Cc1cccc(C)c1-n1c(C)cc(/C=C2\NC(=O)NC2=O)c1C | -21.7 |
| COc1cc(/C=C/C(=O)N2CCOCC2)ccc1OCc1ccccc1 | -8.45 |
| CSc1ccc(NC(=O)N2CCC(C(=O)c3ccc(F)cc3)CC2)cc1 | -40.9 |
| Cc1cc(=O)[nH]c(N/N=C/c2c(C)nn(-c3ccccc3)c2Cl)n1 | -2.96 |
| CCNC(=O)C(=O)NCc1ccncc1 | 7.61 |
| O=c1[nH]c(O)c(C=Nc2ccc(F)c(Cl)c2)c(=O)[nH]1 | 7.3 |
| CCN1CCN(C(=O)c2cccc(OC3CCN(S(C)(=O)=O)CC3)c2)[C@@H](C)C1=O | 13.7 |
| Cc1ccc(NC(=O)CN(C)C(=O)CNC(=O)c2sc3ccccc3c2Cl)cc1 | -9.59 |
| COc1cc(C)ccc1OCC(=O)NC1CCCCCC1 | -4.92 |
| COc1ccc(-c2c(-c3ccc(OCC(=O)NN)cc3O)n[nH]c2C)cc1OC | 7.91 |
| CCOc1c(Br)cc(CNc2ccc(N3CCN(C(C)=O)CC3)cc2)cc1OC | -4.91 |
| CCCNC(=O)CCn1nc(-c2ccccc2)c2ccccc2c1=O | 4.47 |
| COc1cc(OC)cc(C(=O)Nc2cc(C)nn2-c2ccccc2)c1 | 16.3 |
| CCN(CC(=O)Nc1ccc(NC(C)=O)cc1)C(=O)Cc1ccccc1F | 14.5 |
| N#Cc1cccc(NC(=O)CCC2CCCC2)c1 | -7.85 |
| Cc1ccc(NC(=O)CSCC(=O)N2CCN(c3cccc(C(F)(F)F)c3)CC2)cc1 | -13 |
| COc1ccc(CCNS(=O)(=O)c2c(C)[nH]c(C)c2C(=O)N2CCCCC2)cc1OC | 6.91 |
| N/C(=N\OC(=O)c1cccc2ccccc12)c1cccnc1 | 12.3 |
| CCCNC(=O)C(=O)c1cccn1-c1ccsc1C(=O)OC | 1.12 |

| SMILES | hERG current change (%, negative = inhibition) at 10uM [%] |
| --- | --- |
| CCCCS(=O)CC(CS(=O)CCCC)OC(=O)c1ccc(C)cc1 (centres unmarked) | -49.2 |
| CC(C)CCN1C(=O)c2ccccc2C1C(=O)NCc1cccnc1 (centres unmarked) | -16.1 |
| O=C(NCCCn1ccnc1)c1cccc(S(=O)(=O)Nc2ccc(Br)cc2)c1 | -7.87 |
| CN1C(=O)N(C)C(c2cccc([N+](=O)[O-])c2)C2=C1CCCC2=O (centres unmarked) | -0.563 |
| O=C(/C(=C(\[O-])c1ccccc1)[n+]1ccc2ccccc2c1)c1ccc([N+](=O)[O-])cc1 | 6.9 |
| CCOc1cc(NC(=S)N2CCC(C(N)=O)CC2)c(C(=O)OC)cc1OCC | -12.7 |
| CCOC(=O)c1ccc(NS(=O)(=O)c2cc(-c3nnnn3C(C)C)ccc2OC)cc1 | -19.2 |
| CCOc1ccc(NS(=O)(=O)c2csc(C(N)=O)c2)cc1 | 15.4 |
| Cc1ccccc1NC(=O)CN1C(=O)c2cccnc2Oc2ccc(Cl)cc21 | 3.73 |
| CCc1sc(C(=O)N2CCc3cc(OC)c(OC)cc3C2CC(=O)O)cc1C (centres unmarked) | 24.8 |
| Cc1ccc(NC(=O)CN2CCN(c3ccccn3)CC2)cc1S(=O)(=O)N(C)C | -22.1 |
| COc1ccc(NC2CCCN(C(=O)CCC(=O)c3ccc(F)cc3)C2)cc1 (centres unmarked) | -34.2 |
| C=CCn1c(O)c(C(CC)=Nc2ccc(NC(C)=O)cc2)c(=O)[nH]c1=O | 0.499 |
| COc1ccc(C(=O)N2CCOC2CNC(=O)C(=O)NCc2ccc(Cl)cc2)cc1 (centres unmarked) | -8.54 |
| O=C(N/N=C\c1ccccc1)c1ccccc1-n1cccc1 | 3.38 |
| CCOc1ccc(/C=C/C(=O)Nc2ccccc2C(F)(F)F)cc1 | 7.68 |
| Cl.O=C1C2CCCN2C(=O)N1CCCN1CCN(c2cccc(Br)c2)CC1 (centres unmarked) | -9.07 |
| Cc1cc(C(=O)NCc2ccc3c(c2)OCO3)ccc1[N+](=O)[O-] | 0.238 |
| O=C(O)C1C2C=CC(C2)C1C(=O)Nc1ccc(C(=O)N2CCCCC2)c(Cl)c1 (centres unmarked) | 4.45 |
| O=C(COC(=O)c1cc(S(=O)(=O)N2CCCC2)ccc1O)Nc1ccc(S(=O)(=O)N2CCOCC2)cc1 | 23.6 |
| COC(=O)C1=C(C(=O)OC)[C@@H]2N(C)c3ccc(OC)cc3[C@@]23C[C@@H](C(=O)OC)N(C(=O)NC2CCCCC2)C3=N1 | -26 |
| O=C1Cc2cc(S(=O)(=O)NCc3ccccc3Cl)cc3c2N1CCC3 | 6.14 |

| SMILES | hERG current change (%, negative = inhibition) at 10uM [%] |
| --- | --- |
| CC(C)CN(C(=O)CN1CC=C(c2ccccc2)CC1)c1c(N)n(CC(C)C)c(=O)[nH]c1=O | -0.684 |
| Cc1nc(C)c(C(=O)N/N=C/c2cn(C)c3ccccc23)s1 | 0.111 |
| CC(=O)OCC(=O)[C@@]1(O)CC[C@H]2[C@@H]3CCC4=CC(=O)C=C[C@]4(C)[C@H]3[C@@H](O)C[C@@]21C | 10.6 |
| CCCCc1ccc(NC(=O)CN2C(=O)C3CCCCC3C2=O)cc1 (centres unmarked) | -20.7 |
| COc1cc(SC)ccc1C(=O)OCC(=O)NC1CC1 | 7.53 |
| Cc1ccc([N+](=O)[O-])cc1NC(=O)c1cccnc1 | 14.5 |
| CN1CCN(S(=O)(=O)c2ccc(Sc3nnc(-c4cccs4)n3-c3ccccc3)nc2)CC1 | -2.12 |
| COc1ccc(-c2cc(C(=O)NCC3CCCO3)c3cc(C)ccc3n2)cc1 (centres unmarked) | -3.03 |
| CCOC(=O)C1=C(C)N=C2SC(C)C(=O)N2C1/C=C/c1ccccc1OC (centres unmarked) | -0.644 |
| Cn1c(C(=O)NCCN2CCN(Cc3ccccc3)CC2)cc2c(=O)n(C)c3ccccc3c21 | -25.5 |
| Cc1cc(CNC(=O)Cc2ccccc2)c2ccccc2n1 | -6.64 |
| CCCN(CCC)S(=O)(=O)c1ccc(C(=O)NCc2ccco2)cc1 | 3.79 |
| CC/C(=C(/CC)c1ccc(O)cc1)c1ccc(O)cc1 | 2.61 |
| Cc1cccc(N2C(=O)NC(=O)C3(Cc4cc(C)ccc4N(C)C3)C2=O)c1 (centres unmarked) | 12.1 |
| CC[N+](CC)(CC)C/C(N)=N/O.[Cl-] | 11.8 |
| Cc1ccc(CNC(=O)c2ccccc2CCc2ccccc2)cc1 | -8.34 |
| Cc1ccc(N2C(=O)C(O)(C(F)(F)F)C3=C2CC(C)(C)CC3=O)cc1 (centres unmarked) | 6.89 |
| CC1(C)SC2c3ccccc3C(=O)N2[C@@H]1C(=O)O (some centres unmarked) | 16.4 |
| CCCCCCNC(=O)C(C#N)c1nc2ccccc2nc1N1CCOCC1 (centres unmarked) | 4.93 |
| Cc1cccc(NCc2cccc3ccccc23)n1 | 7.85 |
